Laboratory results as given in PMC4336329 (PLoS ONE, 2015).
The whole screen tested about 310,000 compounds, of which about 14,000 (4.5%) showed an effect of 50% or more. Effects have a minus sign here. Some of the results follow.

Molecular target: human ether-à-go-go-related gene (hERG) potassium channel (human, UniProt Q12809)
Assay: primary screen, population patch clamp on CHO cells stably expressing hERG
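Note: peak tail current of the secondary pulse compared with the same well before compound.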

Chain of human ether-à-go-go-related gene (hERG) potassium channel (Q12809 whole entry, looked up): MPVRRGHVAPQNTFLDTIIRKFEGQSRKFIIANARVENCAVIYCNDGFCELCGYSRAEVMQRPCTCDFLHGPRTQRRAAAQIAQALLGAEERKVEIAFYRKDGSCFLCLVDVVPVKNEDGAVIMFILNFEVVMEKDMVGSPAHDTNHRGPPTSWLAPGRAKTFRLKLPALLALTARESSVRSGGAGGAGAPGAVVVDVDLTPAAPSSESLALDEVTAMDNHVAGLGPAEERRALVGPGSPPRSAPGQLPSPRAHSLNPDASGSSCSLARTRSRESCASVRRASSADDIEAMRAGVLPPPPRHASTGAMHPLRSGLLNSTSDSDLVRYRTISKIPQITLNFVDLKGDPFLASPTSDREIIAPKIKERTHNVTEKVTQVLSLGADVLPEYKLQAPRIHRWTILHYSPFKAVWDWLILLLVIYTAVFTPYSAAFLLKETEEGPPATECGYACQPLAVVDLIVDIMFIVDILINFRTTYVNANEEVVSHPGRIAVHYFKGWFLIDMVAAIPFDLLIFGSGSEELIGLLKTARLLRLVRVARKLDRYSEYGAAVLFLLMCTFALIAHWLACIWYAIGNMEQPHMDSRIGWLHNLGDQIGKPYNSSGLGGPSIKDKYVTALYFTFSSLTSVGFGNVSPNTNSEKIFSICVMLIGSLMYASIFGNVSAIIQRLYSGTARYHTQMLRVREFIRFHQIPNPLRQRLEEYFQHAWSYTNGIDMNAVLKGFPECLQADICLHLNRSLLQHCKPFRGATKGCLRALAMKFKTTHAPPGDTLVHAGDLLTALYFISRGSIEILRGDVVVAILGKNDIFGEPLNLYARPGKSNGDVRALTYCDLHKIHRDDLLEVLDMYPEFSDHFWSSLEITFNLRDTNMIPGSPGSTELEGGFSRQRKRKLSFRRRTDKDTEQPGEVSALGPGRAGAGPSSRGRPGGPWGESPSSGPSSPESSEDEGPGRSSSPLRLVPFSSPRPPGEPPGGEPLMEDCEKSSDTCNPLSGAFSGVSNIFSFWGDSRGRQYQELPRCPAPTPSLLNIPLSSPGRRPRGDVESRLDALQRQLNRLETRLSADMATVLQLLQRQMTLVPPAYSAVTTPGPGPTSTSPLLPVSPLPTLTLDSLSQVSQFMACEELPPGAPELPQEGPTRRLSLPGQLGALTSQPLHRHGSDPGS

Structure (SMILES) | hERG current change (%, negative = inhibition) at 10uM [%]
COC(=O)c1ccccc1OCCOc1ccccc1C(=O)OC | -8.08
COc1ccc(C(=O)Oc2ccc(/C=N/NC(=O)c3ccccc3OC)cc2[N+](=O)[O-])cc1 | 7.59
O=C(Cn1[nH]c(=O)c2ccccc2c1=O)OCC(=O)N1CCc2ccccc2C1 | -17.4
Cc1cccc(C)c1OCc1cc(C(=O)N2CCNC(=O)C2)no1 | -1.59
COc1ccc(N2C(=O)CCC2(C(N)=O)c2ccccc2)cc1 (stereo not drawn) | 17.8
COC(=O)c1sc2ccccc2c1NC(=O)c1ccc(S(=O)(=O)N2CCCC(C)C2)cc1 (stereo not drawn) | -9.46
Cc1cccc(NC(=O)c2ccc3ccccc3n2)n1 | -4.54
COc1ccc(-c2cc(C(=O)Nc3cccnc3Cl)no2)cc1 | 21.9
COc1cnn(-c2cccc(C)c2)c(=O)c1Cl | 17.6
COc1cccc(NC(=O)CN(C)C(=O)C23CC4CC(CC(Cl)(C4)C2)C3)c1 | -15.1
CC(C)C(c1nnnn1Cc1ccccc1)N1CCN(Cc2ccc3c(c2)OCO3)CC1 (stereo not drawn) | -52
CC(=O)Nc1c(F)c(F)c(F)c(F)c1F | 6.66
CC1Oc2ccccc2N(CC(=O)N2CCCCCC2)C1=O (stereo not drawn) | 12
CN(Cc1ccccc1)S(=O)(=O)c1ccc2c(c1)n(C)c(=O)n2C | -9.76
CCCCNc1c(-c2ccc(SC3CCCCC3)c(OC)c2)nc2ccc(Cl)cn12.O=C(O)C(F)(F)F | 7.39
C(=N/N1CCN(c2ccccc2)CC1)/c1ccncc1 | -8.37
OC(CNCc1ccccc1)COc1ccccc1 (stereo not drawn) | -11.9
Cn1nnnc1Sc1ncnc2scc(-c3ccccc3Cl)c12 | -24.4
CCOC(=O)c1sc(NC(=O)c2ccco2)c(C#N)c1C | 20.4
COc1ccc(C(C)=O)cc1CSc1nc2ccccc2o1 | 14
CCC(=O)N1CCC2(CC1)Oc1ccc(Cl)cc1C(=O)C21CC(c2ccccc2)=NO1 (stereo not drawn) | 5.79
CCN(CC)C(=S)NC(=O)c1ccc(Cl)cc1Cl | 4.13
Cc1ccc(NC(=O)c2ccc3ccccc3n2)nc1 | -9.27

Structure (SMILES) | hERG current change (%, negative = inhibition) at 10uM [%]
CCOC(=O)Cn1ccc(NC(=O)c2ccc(F)cc2)n1 | 4.41
CSc1ccc(S(=O)(=O)NCc2ccc(Cl)cc2)cc1 | -10.5
CCCn1c(=O)c2ccccc2n2c(SCCOc3ccccc3)nnc12 | -29.2
Cc1ccc(S(=O)(=O)Nc2ccc(O)c3cccnc23)cc1 | -11.2
COC(=O)[C@H](CCSC)NC(=O)NCCc1ccc(F)cc1 | 12.2
O=C(O)c1ccc(N/N=C/C=C/c2ccc([N+](=O)[O-])o2)cc1 | 11.8
CCOC(=O)[C@H]1[C@H]2COc3ccc(Cl)cc3[C@@H]2N2C(=O)CNC(=O)[C@@]12C | 14.5
CCOC(=O)c1sc(NC(=O)C(CC)Sc2nc3ccccc3[nH]2)nc1C (stereo not drawn) | -1.19
CCOc1ccc(N2CC(C(=O)Nc3ccc4c(c3)OCCO4)CC2=O)cc1 (stereo not drawn) | -1.6
O=C(O)C1(Cc2nc3ccccc3[nH]2)CCCC1 | 24.7
Nc1cnn(C2CCCO2)c(=O)n1 (stereo not drawn) | 14.3
CN1CCCNc2nc3ccccc3nc21 | -5.48
CC(=O)Nc1ccc2c(c1)CCC2=O | -3.43
COC(=O)c1ccc(CSc2cc(C)c3cccc(C)c3n2)o1 | 21.2
Cc1ccc(CN2CCN(Cc3nc(C(C)C)cs3)CC2CCO)cc1 (stereo not drawn) | -68.5
Nc1nccnc1C(=O)N/N=C/c1ccco1 | 9.16
COc1ccc(OC)c2sc(NC(=O)C(C)C)nc12 | -0.208
Cc1ccc(NC(=O)NNC(=O)c2cc3ccccc3cc2O)cc1 | 25.2
COC(=O)c1ccccc1NC1CC(=O)N(c2c(C)cccc2C)C1=O (stereo not drawn) | -5.34
CCCc1cc(C(=O)NCc2cccs2)no1 | -8.27
CCN(CC)c1ccc(/C=C2\C(=N)N3N=C(CC(=O)N4CCOCC4)SC3=NC2=O)cc1 | 13.1
CCn1c(SCC(=O)N2CCc3ccccc32)nc2c(c1=O)SC(C)C2 (stereo not drawn) | -6.73
CC(C)NC(=O)NC(=O)COC(=O)c1ccccc1F | 5.41

Structure (SMILES) | hERG current change (%, negative = inhibition) at 10uM [%]
COc1ccc(CNC(=O)c2cc(-c3ccc(OC)c(OC)c3)on2)cc1 | 6.84
CCn1c2ccc(C)cc2c2n[nH]c(=S)nc21 | 0.73
C=CCn1c(SCC(=O)c2ccc(CNC(C)=O)o2)nc2ccccc2c1=O | -24.1
Cc1ccc(NC(=O)c2cc(NC(=O)c3ccco3)ccc2N2CCCCC2)cc1 | 13
C#CCOCCOCCOCCNc1nc(N2CCN(C(=O)CCCCCCCCCCNC(=O)[C@H](CCCCN)n3cc(CCO)nn3)CC2)nc(N2CCN(C(=O)CCCCCCCCCCNC(=O)[C@H](CCCCN)n3cc(CCCC(=O)O)nn3)CC2)n1 | 5.01
CC(=O)N1CCN(c2ccc(NC(=O)c3ccccc3Cl)cc2)CC1 | 0.783
O=C(C1CCN(Cc2nc(-c3ccc(Cl)cc3)no2)CC1)N1CCOCC1 | -61.9
COc1ccc(/C(O)=C2/C(=O)C(=O)N(CCCN(C)C)C2c2ccc(Cl)cc2)cc1OC (stereo not drawn) | 12.2
O=C(Nc1ccon1)c1cc2c(s1)CCCC2 | -19
Cc1ccc(/C=[N+](/[O-])C2SC(=S)N(C)C2(C)C)cc1 (stereo not drawn) | 7.34
CCN(CC)C(=O)COc1ccc2oc(C)c(C(=O)OC)c2c1 | -7.15
Cc1cccc(N2C(=O)CCC2=O)c1 | -1.04
CCCN(CCC)CCCNC(=O)Cn1cnc2sc(C)c(S(=O)(=O)N3CCC(C)CC3)c2c1=O | 9.37
O=C(COC(=O)CC1CCCC1)Nc1ccc(OC(F)F)cc1 | 9.71
Cc1cc(C(=O)N2CCN(c3ncccn3)CC2)nn1C | -14.1
CCC(C)C(Nc1ncnc2scc(-c3ccccc3)c12)C(=O)O (stereo not drawn) | 23.4
COC(=O)C1=C(C)NC(=S)NC1c1ccc(OCC(=O)N2CC(C)OC(C)C2)c(OC)c1 (stereo not drawn) | 18.4
CCC1(CC)C(=O)C(C)(C)C(=O)OC1c1cccs1 (stereo not drawn) | -12.7
COc1cccc(C(=O)OCn2nnc3ccccc3c2=O)c1 | 0.671
O=C(c1ccco1)N1CCN(S(=O)(=O)c2cccc(C(F)(F)F)c2)CC1 | -8.61
CC(NC(=O)c1ccccc1Cl)C1COc2ccccc2O1 (stereo not drawn) | -9.88
CCN(CCNC(=O)C1CCN(c2nnc(-n3cccc3)s2)CC1)c1ccccc1 | -37.1
COc1cc(C2Nn3c(nnc3-c3ccccc3OC)S2)ccc1O (stereo not drawn) | 19.1

Structure (SMILES) | hERG current change (%, negative = inhibition) at 10uM [%]
Cc1ccc(OCC(=O)NCC2CCCO2)c(C)c1 (stereo not drawn) | 13.8
CCCCCc1c(C)nc(N2CCOCC2)[nH]c1=O | 6.22
C=CCn1c(SCC(=O)N(C)c2c(N)n(Cc3ccccc3)c(=O)[nH]c2=O)nnc1-c1ccccc1OC | 15.5
CC(=O)Nc1ccc(NC(=O)CSc2nccn2Cc2ccc(Cl)cc2)cc1 | -9.56
Cc1cccc(NS(=O)(=O)c2cccc(C(=O)N3CCN(S(=O)(=O)c4ccccc4)CC3)c2)c1 | -28.2
Cc1cc(C)c(C#N)c(OCC(=O)c2ccc(Br)cc2)n1 | 17.4
COc1cc(C(=O)OC(C)C(=O)Nc2ccc3c(c2)OCO3)ccc1OCc1c(C)noc1C (stereo not drawn) | 15.8
C=CCNC(=O)Cn1nc(-c2ccccc2)ccc1=O | 1.12
Cc1csc(-c2coc3cc(O)cc(C)c3c2=O)n1 | 2.27
Cc1cc(C)c(S(=O)(=O)Nc2cccc(S(=O)(=O)N3CCOCC3)c2)c(C)c1 | -6.2
Cc1nn(Cc2ccccc2Cl)c(C)c1C(=O)NCC(c1cccs1)N1CCOCC1 (stereo not drawn) | -9.56
O=c1[nH]c(=S)n(-c2ccccc2)c(O)c1/C=N/N1CCOCC1 | -2.11
Cc1ccc2[nH]c3c(c2c1)CN(C(=O)CN1CCN(c2cccc(C)c2C)CC1)CC3.Cl | 2.08
CC(C)C(=O)Nc1ccc2c(c1)nc(CCN1CCCCC1)n2C | -0.778
COCCCC1CCN(C(=O)C2CCC(=O)N(Cc3ccccc3F)C2)CC1 (stereo not drawn) | 1.69
S=c1[nH]nc(-c2ccccn2)n1/N=C/c1ccc(Br)s1 | 20.8
O=C(Nc1ccc2[nH]ncc2c1)c1ccccc1Br | 7.25
O=C(Nc1ccc(Cl)cc1)c1cccc(S(=O)(=O)Nc2ccccn2)c1 | -6.23
COC(=O)C1=CC(C(=O)c2cccs2)=NN(c2ccc(OC)cc2)C1C(=O)OC (stereo not drawn) | -12.8
CC1(C)Cc2cccc(OCC(=O)NCc3ccccc3F)c2O1 | -5.79
CC(C)c1ccc(C(=O)Nc2nnc(S(=O)(=O)N3CCCCC3)s2)cc1 | 20
